These results are taken from the supplement of paper PMC11417369.

± gives the standard deviation of the averaged measurements. The list shows a part of the results.

For the experiment, the system named is PfAP2-G AP2 domain (GST-tagged). Description: gcPBM binding intensity (ln(normalized median fluorescence intensity)); higher = stronger DNA binding. An outline of the steps: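 Each value is the highest Masliner-normalised natural-log median intensity across replicate spots of either orientation of a probe. The probes were primer-extended double-stranded 36-bp intergenic genomic sequences on an Agilent 4 × 180k array, alongside negative controls, exposed for 1 h to GST-tagged P. falciparum DNA-binding domains expressed in E. coli. Bound protein was picked up with Alexa488 anti-GST antibody and scanned at 488 nm.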
Turning to “GTATTACCTTATTATTGTACTTTCATGATATATATG [XGTACX_site5382]”, the “gcPBM binding intensity (ln)” value is 11.2 ± 0.69.
With “TTAATGAATGGACACACACACATATATATATATATT [CACACA_site5294]” the figure was 10.7 ± 0.42; with “CATAGATACATACACGCACACACATATATATATATA [CACACA_site13]”, 10.5 ± 0.28.
Regarding “TACACAAGAAAATTCACACACACACCCATATATATA [CACACA_site3879]”, the “gcPBM binding intensity (ln)” value came to 9.95 ± 0.028.
As for “AACATACATGTATATAGTACATATTACATCTGATAC [XGTACX_site3649]”, the “gcPBM binding intensity (ln)” value was 10.9 ± 0.47.
Turning to “ATGTAATTATAAGATTAATATACATAATTATATGTA [GTGCAC_negctrl_site458]”, the “gcPBM binding intensity (ln)” value is 9.54 ± 0.071.
With “TGCTATTTTATTTATTCTTTTATAAAAGTATAATAT [XGTACX_negctrl_site358]” the figure was 10.135 ± 0.007; with “ATTTTTATAGAATGAACACACATATTATAGCATTTA [CACACA_site6842]”, 9.95 ± 0.042; with “CATATAAAAGGACACACACACACATATAAATATGTA [CACACA_site6568]”, 11.2 ± 0.9.
Regarding “TAATTTTTTTTTTTTTTTTTTGTACTTCATTTTTAT [CACACA_negctrl_site1395]”, the “gcPBM binding intensity (ln)” value amounted to 11.3 ± 1.1.
For the sequence “AAAAAAAAAAAAAGTACATGCAATATGGATCTTAAA [TGCATGCA_site367]”, the “gcPBM binding intensity (ln)” value was found to be 11.4 ± 0.82.
Turning to “ATAAAAAAAATTTGCACACCTTCAAAGTAATATATA [CACACA_site1584]”, the “gcPBM binding intensity (ln)” value was 10.2 ± 0.18.
With “TATGTGTGCAAAAACTGTACACATTAAAGGTATATA [XGTACX_site7627]” the figure was 11.7 ± 1.1; with “ATTATAATGTTAATGTGTACATATGATTCCTTAATT [XGTACX_site181]”, 11.3 ± 0.74.
Turning to “TATGTTTTTACATATTGTACATATTCTTGTAATACG [XGTACX_site1179]”, the “gcPBM binding intensity (ln)” value stood at 11.2 ± 0.67.
For “TACTTTCAAAAGATCACACATATATATATATATATA [CACACA_site5630]” the value was 10.2 ± 0.61; for “TAATAACATACAGACACACACGTAAAAGCACGTGTA [CACACA_site4299]”, 10.14 ± 0.064.
For “TATGGTTACATTATATGTACTAAACGAATATTTTTA [XGTACX_site5694]” the value was 10.9 ± 0.55; for “TATACAAGTATATAGGTGCATATATAAGTATATATT [GTGCAC_site9994]”, 9.84 ± 0.085; for “ATAAATAAATAAGTACATATATATATGTATATATAT [TGCATGCA_negctrl_site223]”, 11.4 ± 1.1.
For “ATGACATGTTCTAAATGTACATTTTTTAACCCTTTT [XGTACX_site1858]” the value was 10.8 ± 0.4; for “AGTAATTTAAGGAATACACACAAGAAAAAAATAAGA [CACACA_site6177]”, 10.3 ± 0.11.
On to “CATTAAAAGTATAATTGTACTTTTCATTTATATATT [XGTACX_site7536]”, for which the “gcPBM binding intensity (ln)” value is 11.3 ± 0.64.
For “ACTACATTATGTCATACATGCATACATACGTGGTTT [TGCATGCA_site732]” the value was 10.3 ± 0.14; for “AGATTATTTAGAATGTGTACATATTACACATACATG [XGTACX_site8634]”, 11.3 ± 0.81.
In the case of “TAATATATATATATATGTACATATATATTATGTATA [XGTACX_site4690]”, the “gcPBM binding intensity (ln)” value was 11.2 ± 0.68.
With “TTCTCAAAATTAAAATAACAGATTAACGAACTAACG [CACACA_negctrl_site1720]”, the “gcPBM binding intensity (ln)” value is 9.91 ± 0.099.
For “CATACATACAAACACACACACACACCCATATATATA [CACACA_site2918]” the value was 10 ± 0.4; for “TTTTTAACCAAACATCAAAACATATTTTTTTGTTAT [CACACA_negctrl_site385]”, 9.93 ± 0.18.
Take “GTATACCTTTTGACATGTACGTATGTATATTTGGGT [XGTACX_site720]”: the “gcPBM binding intensity (ln)” value came to 11.5 ± 0.98.
In the case of “ATAATATGAGTCCCACAAAATAGACCATACGAATAT [CACACA_negctrl_site50]”, the “gcPBM binding intensity (ln)” value stood at 11 ± 0.59.
For TATAAATTTATACCAGTGCATTTTGAAATATATATA the value was 9.98 ± 0.11; for “AAAAATATTAAAAGGCGTACAATACCTGTATGCAAC [XGTACX_site6069]”, 11.6 ± 1.
For “CATGTAAAATATTAAAGTACATGATTATATATATAT [XGTACX_site7486]” the value was 11.1 ± 0.67.
Turning to “TATATATTTTATATATGTACATATTTATATGTTTCT [XGTACX_site1818]”, the “gcPBM binding intensity (ln)” value is 11.3 ± 0.82.
With “TTTTTTTTTTTTTGAACACACATTATTAACTTTTAT [CACACA_site6281]” the figure was 9.88 ± 0.28; with “CGCGAACATACATACACACACATATATATATATGTA [CACACA_site205]”, 9.99 ± 0.071.
As for “AAAAAAAAGTTATATACACACATATAAATATAAATA [CACACA_site6683]”, the “gcPBM binding intensity (ln)” value was determined as 9.805 ± 0.035.
For the sequence “TATATTTATATAATATGTACATATTTTTTAATATTT [XGTACX_site3834]”, the “gcPBM binding intensity (ln)” value came to 11.2 ± 0.72.
In the case of “TATTTTATTTTCCGAAGTACAAAAGCAAAAAAAAAC [XGTACX_site103]”, the “gcPBM binding intensity (ln)” value came to 11.3 ± 0.87.
“AGCTAAAATATTTTTGCACACGATTTTTTTTTTTTT [CACACA_site1140]”: the “gcPBM binding intensity (ln)” value amounted to 9.89 ± 0.042.
For the sequence “TATATTCAATTTTTGGTGCGTAAATTAATACAAACA [GTGCAC_site9764]”, the “gcPBM binding intensity (ln)” value was found to be 10.3 ± 0.35.
For “ATATATTATATTATATGTACTTAAAAAAGTGCAAAG [XGTACX_site318]” the value was 11.4 ± 0.88.
Turning to “TATTAATTTTTCCTTTTTTTTTTACCCCTTTGTACA [CACACA_negctrl_site947]”, the “gcPBM binding intensity (ln)” value was determined as 10.05 ± 0.014.
With “ATGCACGGAAAAATATGTACTTAATTTCAATAATAT [XGTACX_site8311]” the figure was 11.3 ± 0.79.
For “CGGACATACTAACGGACACACGTAAGAAAAAAAAAG [CACACA_site4504]” the value was 11 ± 0.64.
For “TATATGTCCATATTTCCACACACATATTATTTTTAT [CACACA_site9266]” the value was 10.8 ± 0.42.
As for “TTTTTTCAATAAATAATCGTATATTGAATAATAATA [CACACA_negctrl_site822]”, the “gcPBM binding intensity (ln)” value is 9.59 ± 0.042.
Regarding “AGAGAGAACGGTATAACATGCGATAAATTTTAGAAG [TGCATGCA_site357]”, the “gcPBM binding intensity (ln)” value came to 9.89 ± 0.2.
Regarding “ATTTTAATTTTGTATACACACATTTGAATTATTAAT [CACACA_site3528]”, the “gcPBM binding intensity (ln)” value worked out at 10.1 ± 0.12.
For “AATATATACATATATACACACACATATATATATATA [CACACA_site8907]” the value was 10 ± 0.27; for “TAAAATGTTATAAGAACATGCAATTCCTTTTATTAT [TGCATGCA_site408]”, 9.56 ± 0.21.
For “AAATAATACATTCGTACTACACATATATATTAAATA [XGTACX_site7806]” the value was 11 ± 0.71; for “TTTTTAGAAAAGGTTATAAAAAATTAATTGAAAAAA [GTGCAC_negctrl_site289]”, 9.845 ± 0.035; for “AATCAATATTATATATGTACTTATTTTCACTTTTGC [XGTACX_site1775]”, 11.3 ± 0.88.
With “TATATATATTCTTTGTGTACTCATATAAGGGTAGAA [XGTACX_site8121]” the figure was 11.6 ± 1.1; with “TTGTCATTATTATATTGTACAATAAGTATTAAAGAA [XGTACX_site1205]”, 11 ± 0.55; with “AACTGATATTAATTCTGTACCTATACGTTATATGTT [XGTACX_site1003]”, 10.8 ± 0.54.
As to “TATGAACATATATATTGTACAAAATTATAATTTCAA [XGTACX_site6406]”, the “gcPBM binding intensity (ln)” value is 10.7 ± 0.47.
With “AAGCGAATCTATATCACACACAAAAAAATCAGACTA [CACACA_site7072]” the figure was 9.97 ± 0.22; with “AGTTCAGAATTGAATAGTACATAAATATAACAAAAT [XGTACX_site650]”, 11 ± 0.64; with “AAAAAAAAAAGACACACACACACATACACATACATA [CACACA_site7362]”, 10.2 ± 0.13.
For the sequence “TATATATATATATATATATATATATATATAATTTGA [XGTACX_negctrl_site3]”, the “gcPBM binding intensity (ln)” value amounted to 9.72 ± 0.52.
With “TTATTATATATGTTCACATAAATACATAAATATATA [GTGCAC_negctrl_site529]” the figure was 10 ± 0.32; with “TTAAAAAAGTAATTAACACACAATAATGTAATGCAT [CACACA_site4176]”, 9.9 ± 0.13.
With “AAAAATAAATATACATGTACATAATAATAATATATA [XGTACX_site8359]” the figure was 11.3 ± 0.74; with “TTTGAAAAAAAATATTGTACACGTGAATAAAGTATT [XGTACX_site644]”, 11.3 ± 0.91.
For “TTGCATCTATTTTTGAGTACACAATGAGAATAATTA [XGTACX_site7171]”, the “gcPBM binding intensity (ln)” value turned out to be 11.5 ± 0.9.
For “ACCCAAAATATATTCACACAAAAAATATTAAAAATA [CACACA_site5433]” the value was 9.96 ± 0.13.
With “TTAGGTTATAAATACACACACAAAAGAAAAAAAAAA [CACACA_site5625]” the figure was 10.2 ± 0.27.
With “TAATATATATAACAAGTGCAAAAAAATATAGATATT [GTGCAC_site9625]” the figure was 10.005 ± 0.007.
With “AATAAACAAATAAATAAATAAACAGATAAATAAATC [CACACA_negctrl_site920]”, the “gcPBM binding intensity (ln)” value turned out to be 9.73 ± 0.11.
For “GAGAACATTGATACACGTACATAAGTTATAAGTATT [XGTACX_site7665]” the value was 11.4 ± 0.82; for “AAGCATCCTACTGATTGTACATATATATATATATAT [XGTACX_site2150]”, 10.9 ± 0.45.
In the case of “AAATATATTATATATGCATGCGCCAAGATTTATATA [TGCATGCA_site770]”, the “gcPBM binding intensity (ln)” value came to 9.94 ± 0.15.
In the case of “TATTTAAATTAATATTGTACATATATTTATAATATA [XGTACX_site6109]”, the “gcPBM binding intensity (ln)” value is 11.1 ± 0.71.
For “TTTATTTATATAATTACACACATATATACACAAATG [CACACA_site8903]” the value was 10.2 ± 0.28; for “TTGTTTTCTTTTTCTTTTCTTTTTCTTTTTTCTTTT [GTGCAC_negctrl_site629]”, 9.89 ± 0.042; for “TATATATATATAAAGACACACATCTATAGAATGTTA [CACACA_site2557]”, 10 ± 0.31.
Take “TATTTATATTTATACACACACACAAAAAAAAAAAAA [CACACA_site6817]”: the “gcPBM binding intensity (ln)” value is 10.1 ± 0.49.
Take “ACATAAATATATGACACACACACATATTATATATAT [CACACA_site3065]”: the “gcPBM binding intensity (ln)” value was found to be 10.11 ± 0.085.
With “CCATTACCATATAAAACACACAAACATACATACATA [CACACA_site5952]”, the “gcPBM binding intensity (ln)” value came out at 10.09 ± 0.057.
For “GTATAATTATGTGCACGTACATATTTTATTATATAT [XGTACX_site8586]” the value was 11.5 ± 0.9; for “AAAAAAAAAAAAAAAGCACACACACCGATGTGTATA [CACACA_site8224]”, 10.19 ± 0.085.
“TATATATATATACCTTGTACTTACATTCGCATATAA [XGTACX_site2466]”: the “gcPBM binding intensity (ln)” value amounted to 11.3 ± 0.93.
For the sequence “TACCAAATTTATTCTTGTACATATATATATATATAT [XGTACX_site4832]”, the “gcPBM binding intensity (ln)” value was 10.8 ± 0.48.
For “TTTATGACTTGAAAAAGTACACATATATTTATGCAA [XGTACX_site5451]” the value was 11.5 ± 0.91; for “ATTATTATACACAAATGTACATGTGAATTTTTTTTC [XGTACX_site6982]”, 11 ± 0.54.
